In PubChem BioAssay AID1745853 (National Center for Advancing Translational Sciences (NCATS), 2022):
Some of the results follow. These are further read-outs of the screen, such as a control signal, another cell line or another target. No call is given for them.

How the values were obtained:
Test in all cases: Primary Screen for Target Class Profiling of Small Molecule Inhibitors of Methyltransferases
[1] = biological target: Glycine N-methyltransferase (Homo sapiens) (UniProt Q14749); details: purified enzyme, MTase-Glo SAH luminescence; measured here: GNMT inhibition; at 40 µM; stronger effect = lower value
Summary of the method: (§1)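 Each enzyme was assayed with SAM and its substrate. SAH formation detected by MTase-Glo luminescence; single-point 40 uM screen[…].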

[2] = biological target: Guanidinoacetate N-methyltransferase (Homo sapiens) (UniProt Q14353); details: purified enzyme, MTase-Glo SAH luminescence; measured here: GAMT inhibition; at 40 µM; stronger effect = lower value
Summary of the method: as §1

[3] = biological target: Histamine N-methyltransferase (Homo sapiens) (UniProt P50135); details: purified enzyme, MTase-Glo SAH luminescence; measured here: HNMT inhibition; at 40 µM; stronger effect = lower value
Summary of the method: as §1

[4] = biological target: Nicotinamide N-methyltransferase (Homo sapiens) (UniProt P40261); details: purified enzyme, MTase-Glo SAH luminescence; measured here: NNMT inhibition; at 40 µM; stronger effect = lower value
Summary of the method: as §1

[5] = biological target: Phenylethanolamine N-methyltransferase (Homo sapiens) (UniProt P11086); details: purified enzyme, MTase-Glo SAH luminescence; measured here: PNMT inhibition; at 40 µM; stronger effect = lower value
Summary of the method: as §1
% is set by controls: 0 for no effect and ±100 for the full control effect.

Compound | activity change, negative = inhibition [1] [%] | activity change, negative = inhibition [2] [%] | activity change, negative = inhibition [3] [%] | activity change, negative = inhibition [4] [%] | activity change, negative = inhibition [5] [%]
CCc1ccc(S(=O)(=O)c2nnn3c2nc(N2CCN(CC)CC2)c2cc(Cl)ccc23)cc1 | -14.5 | 0.402 | -22.1 | -2.99 | -10.1
COc1cc2c(cc1OC)-c1cc(=Nc3c(C)cc(C)cc3C)n(C)c(=O)n1CC2 | -15.6 | 5.45 | -4.24 | -15 | 0.202
c1ccc(Cc2nnc([C@H]3CCN(CC4CCCCC4)C3)o2)cc1 | -3.87 | -0.322 | -3.77 | -5.42 | -30.1
Cn1c(=O)c(-c2c(Cl)cccc2Cl)cc2cnc(Nc3ccc(N4CCOCC4)cc3)nc21 | -1.7 | 9.54 | -2.77 | -8.23 | 0.829
Cn1cc(-c2ccc(F)c(C(F)(F)F)c2)nc1C1CCN(c2ncnc3[nH]ncc23)CC1 | 1.51 | 15.5 | 4.57 | -71.8 | -5.88
COc1cc(C(=O)OCC2=CCC3C(C(=O)O)=COC(O[C@@H]4O[C@H](CO)[C@@H](O)[C@H](O)[C@H]4O)C23)ccc1O (stereo not given in full) | 3.82 | 1.4 | 10.4 | -8.77 | 2.64
CCn1nccc1C(=O)N1C[C@@H]2CCCN3CCC[C@@H]([C@H]23)[C@H]1CCCC(=O)NC | 0.548 | 0.263 | -4.47 | -5.8 | 9.24
OCCc1ccc(O[C@@H]2O[C@H](CO)[C@@H](O)[C@H](O)[C@H]2O)cc1 | 15.3 | 17.2 | 12.4 | 5.88 | 4.65
CCc1ccc(S(=O)(=O)c2nnn3c2nc(NCCc2c[nH]c4ccccc24)c2ccccc23)cc1 | 2.16 | 0.39 | 5.71 | 7.77 | 0.765
Cc1ccc(S(N)(=O)=O)cc1C(=O)N1CCCn2nc(C(C)O)cc2C1 (stereo not given) | -6.9 | -5.64 | -3.34 | -10.9 | -6.85
CCCCNc1ccc(C(=O)OCCN(CC)CC)cc1 | -1.2 | 9.28 | -14.5 | -14.6 | -8.35
CCCNC(=O)N[C@@H]1CCC[C@@H](C(=O)N(CC)CC)CC(=O)N(C)C1 | -9.03 | -9.19 | -17.5 | -16.1 | -7.32
COC(=O)c1cc2n(n1)CC(C)(C(=O)NC1CCCC1)N(c1ccc(Cl)cc1C)C2=O (stereo not given) | 4.14 | 0 | 8.8 | 10.8 | 3.54
CCOC(=O)c1cc2n(n1)CC(C)(C(=O)NCc1ccc(C)cc1)N(C1CC1)C2=O (stereo not given) | 2.62 | 0 | 4.34 | 2.1 | 1.54
Cc1cccc([S+](=O)([O-])N2CCC3(CC2)OCCN(CC2CC2)C3=O)c1 | -8.67 | -13.7 | -6.19 | -18.2 | -12.4
CCNC(=O)N1CCOc2ccc(CN3CCOCC3)cc2C1 | -3.98 | -0.132 | -0.527 | -2.4 | -20.5
